The supplement of paper PMC12578646, “Prodrug florfenicol amine is activated by intrinsic resistance to target Mycobacterium abscessus” (Nature Microbiology, 2025)

Key:
[1] = system: Mycobacterium abscessus ATCC 19977 Eis2 E120fs
Protocol: (§1)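 384-well two-fold dose series, two replicates; 5 days at 37 °C, then 24 h with resazurin; fluorescence scaled to growth and killed controls.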

[2] = system: Mycobacterium abscessus ATCC 19977 Eis2 Y227D
Protocol: as §1

[3] = system: Mycobacterium abscessus ATCC 19977 Δeis2
Protocol: as §1

[4] = system: Mycobacterium abscessus ATCC 19977 WhiB7 F24fs
Protocol: as §1

[5] = system: Mycobacterium abscessus ATCC 19977 WhiB7 L37P
Protocol: as §1

[6] = system: Mycobacterium abscessus ATCC 19977 WhiB7 A51T
Protocol: as §1

[7] = system: Mycobacterium abscessus ATCC 19977 Eis2 Y255*
Protocol: as §1

[8] = system: Mycobacterium abscessus ATCC 19977 WhiB7 T70fs
Protocol: as §1

[9] = system: Mycobacterium abscessus ATCC 19977 Eis2 Y284*
Protocol: as §1

[10] = system: Mycobacterium abscessus ATCC 19977 Eis2 T258R
Protocol: as §1

[11] = system: Mycobacterium abscessus ATCC 19977 ΔwhiB7
Protocol: as §1

[12] = system: Mycobacterium abscessus ATCC 19977 WhiB7 R76del
Protocol: as §1

[13] = system: Mycobacterium abscessus ATCC 19977 Eis2 E120fs; experiment: growth relative to untreated wells; higher = more growth (less inhibition)
Protocol: as §1

[14] = system: Mycobacterium abscessus ATCC 19977 Eis2 Y227D; experiment: as above
Protocol: as §1

[15] = system: Mycobacterium abscessus ATCC 19977 Δeis2; experiment: as above
Protocol: as §1

[16] = system: Mycobacterium abscessus ATCC 19977 WhiB7 F24fs; experiment: as above
Protocol: as §1

[17] = system: Mycobacterium abscessus ATCC 19977 WhiB7 L37P; experiment: as above
Protocol: as §1

[18] = system: Mycobacterium abscessus ATCC 19977 WhiB7 A51T; experiment: as above
Protocol: as §1

[19] = system: Mycobacterium abscessus ATCC 19977 Eis2 Y255*; experiment: as above
Protocol: as §1

[20] = system: Mycobacterium abscessus ATCC 19977 WhiB7 T70fs; experiment: as above
Protocol: as §1

[21] = system: Mycobacterium abscessus ATCC 19977 Eis2 Y284*; experiment: as above
Protocol: as §1

CS(=O)(=O)c1ccc([C@@H](O)[C@@H](CF)NC(=O)C(Cl)Cl)cc1 [florfenicol]
Settings | IC50 [µg/mL]
[1] | 29.8 (≈ 83.1 µM)
[2] | 30 (≈ 83.8 µM)
[3] | 20.9 (≈ 58.2 µM)
[4] | 29.7 (≈ 82.9 µM)
[5] | 39.4 (≈ 110 µM)
[6] | 41.1 (≈ 115 µM)
[7] | 23.6 (≈ 65.9 µM)
[8] | 33.1 (≈ 92.5 µM)
[9] | 17.9 (≈ 50 µM)
[10] | 18.5 (≈ 51.7 µM)
[11] | 43.9 (≈ 122 µM)
[12] | 28.9 (≈ 80.7 µM)

growth [%]
Settings | [13] | [14] | [15] | [16] | [17] | [18] | [19] | [20] | [21]
0.5 µg/mL | 107 | 106 | 94.9 | 102 | 102 | 99.3 | 101.47 | 94.14 | 103.3
1 µg/mL | 110.7 | 108 | 97.9 | 102 | 99.1 | 110 | 104 | 100 | 101
2 µg/mL | 112.34 | 108 | 101 | 98.1 | 109 | 107 | 103 | 99.5 | 103
4 µg/mL | 117 | 115 | 102 | 113 | 115.3 | 117.8 | 111 | 108.2 | 110.8
8 µg/mL | 116 | 120.7 | 109.7 | 111.2 | 117 | 120 | 119.7 | 113 | 119.6
16 µg/mL | 105 | 105 | 66.6 | 105 | 117 | 117 | 85.8 | 109 | 61.1
32 µg/mL | 37 | 39.24 | 23.3 | 39.4 | 66.5 | 73.5 | 19.6 | 52.4 | 8.93
64 µg/mL | 3.44 | 4.03 | 1.97 | 10.7 | 15.6 | 13.7 | 0.226 | 8.7 | -0.153
128 µg/mL | -0.458 | 0.0861 | -1.16 | 2.01 | 4.7 | 4.19 | -2.67 | 0.344 | -2.04
256 µg/mL | -1.61 | -0.2 | -2.82 | -2.18 | -1.16 | -2.12 | -3.32 | -3.68 | -2.11
512 µg/mL | -1.64 | -0.268 | -2.44 | 2.5 | -1.89 | -2.32 | -3.09 | -3.82 | -1.958
1024 µg/mL | -1.87 | -0.612 | -2.02 | -1.21 | -1.67 | -1.85 | -3.09 | -2.71 | -1.89

CNC1CC(N)C(O)C(OC2OC(CO)C(O)C3OC4(OC(C(N)CO)C(O)C(O)C4O)OC23)C1O (stereo not given) [hygromycin B]
Settings | IC50 [µg/mL]
[1] | 14.5 (≈ 27.6 µM)
[2] | 14.3 (≈ 27.1 µM)
[3] | 14.3 (≈ 27.1 µM)
[4] | 8.03 (≈ 15.2 µM)
[5] | 7.97 (≈ 15.1 µM)
[6] | 13.2 (≈ 25.1 µM)
[7] | 14.7 (≈ 27.8 µM)
[8] | 8.04 (≈ 15.2 µM)
[9] | 14.4 (≈ 27.3 µM)
[10] | 14.3 (≈ 27.1 µM)
[11] | 7.09 (≈ 13.4 µM)
[12] | 8.03 (≈ 15.2 µM)

growth [%]
Settings | [13] | [14] | [15] | [16] | [17] | [18] | [19] | [20] | [21]
0.5 µg/mL | 111 | 113 | 105 | 107 | 111 | 115 | 119 | 101 | 110
1 µg/mL | 115 | 113 | 106 | 117.1 | 120 | 115 | 121 | 110 | 110.7
2 µg/mL | 118 | 108 | 105 | 112 | 118 | 114 | 115.5 | 111 | 115
4 µg/mL | 126.52 | 120 | 118.7 | 110.7 | 125.5 | 120 | 121 | 114.1 | 119
8 µg/mL | 135 | 135.35 | 130 | 51.9 | 48.2 | 136 | 130 | 53.2 | 124
16 µg/mL | 27.8 | 20.7 | 8.001 | -0.289 | -0.664 | 0.526 | 18.9 | -3.57 | 18.2
32 µg/mL | 1.78 | 1.31 | -0.7129 | -0.807 | -0.825 | -1.21 | -1.62 | -3.56 | 0.473
64 µg/mL | 1.21 | 0.0666 | -2.14 | -1.12 | -1.52 | 18.5 | -3.1 | -3.95 | -1.86
128 µg/mL | -1.18 | -0.296 | -2.6 | -0.973 | -1.91 | 3.74 | -2.94 | -3.72 | -1.77
256 µg/mL | 0.0283 | 0.513 | -1.85 | -1.06 | -0.602 | -1.01 | -2.49 | -3.06 | -1.15
512 µg/mL | -0.843 | 0.899 | -1.18 | -0.468 | -1 | -0.794 | 0.338 | -2.71 | -0.565
1024 µg/mL | 0.809 | 2.05 | -0.106 | 0.591 | 1.02 | 0.542 | -1.03 | -1.51 | -0.0914

Values after ≈ are worked out from the molar mass of the structure shown. M. abscessus ATCC 19977 and its deletion, point and complemented mutants after 5 days of drug at 37 °C plus 24 h of resazurin. Growth in % of untreated wells at the dose given (lower = more inhibition); checkerboards give % inhibition (higher = more inhibition); IC50 from the fitted curve (lower = more potent). No active / inactive call. IC50 values come from the same 384-well curves. Growth is not capped and can exceed 100%. The direction of the checkerboard scale is read from the raw signals. Capreomycin is a mixture.
